# About 200 (0.47%) of roughly 43,000 compounds were called active. Roughly 12% stayed inconclusive and do not appear here. Calls come from the whole dose curve; as a rule, active = well fitted cell-killing curve with a large enough effect; inconclusive = small, poorly fitted or top-dose-only effect, or effect the other way; inactive = flat fitted curve, though single readings scatter. The list shows a part of the results.
# Assay: Cell viability qHTS assay in S16 Pmp22-F2sN cells; note: nearly all actives have a fitted effect of over 65% in size
# Conditions: S16 Pmp22-F2sN Schwann cells (luciferase reporters placed in the Pmp22 gene) viability, CellTiter-Glo, 24 h; series mostly up to 57.5 µM; activity change, negative = cytotoxicity: at the top concentration
# Outline: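 CellTiter-Glo counter-screen, qHTS, 1536-well. Cells: S16(c9) Pmp22-F2sN, 500-1,000/well in DMEM + 10% FBS. Cpd 23 nL pin transfer, 24 h, 37C/5% CO2. Read: luminescence, CCD imager.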
# % is set by controls: 0 for no effect and ±100 for the full control effect.
row,SMILES,"activity change, negative = cytotoxicity"
1,COc1ccccc1CNC(=O)c1cc(Sc2cccc(Cl)c2)nc2ccccc12,inactive: 8.1%
2,CCc1ccc(C(=O)c2cnc3ccc(C)cc3c2S(=O)(=O)c2ccc(OC)cc2)cc1,inactive: -0.151%
3,COCCc1nn2c(=O)cc(COC(=O)c3cccs3)nc2s1,inactive: 6.15%
4,CCOc1ccccc1NC(=O)CN(CCc1ccccc1)S(=O)(=O)c1ccc(C)cc1,inactive: -10.7%
5,Cn1nnc2c(N3CCCCC3)ncnc21,inactive: -8.19%
6,CCc1cccc(C)c1NC(=O)CN1C(=O)c2c(c3ccccc3n2C)C1c1ccc(OC)cc1 (stereo unspecified),inactive: -4.29%
7,CCn1ccc2cc(S(=O)(=O)N3CCC(C(=O)NCCc4ccc(SC)cc4)CC3)ccc21,inactive: -28.1%
8,Clc1ccc(CNc2nc3ccccc3c3nc(-c4cccnc4)nn23)cc1,inactive: 8.5%
9,COc1cc2cc(CNc3ccc(C)cc3)c(=O)n(CC(=O)Nc3ccc(C(C)C)cc3)c2cc1OC,inactive: -3.36%
10,COc1ccccc1NC(=O)c1ccccc1NC(=O)c1ccccc1,inactive: 14.3%
11,CN(C)c1ccc(CNC(=O)CCC(=O)N2Cc3ccccc3Oc3ncccc32)cc1,inactive: -0.814%
12,COc1ccc(NC(=O)CSc2nc(-c3ccc(OC)cc3)[nH]c2-c2ccc(F)cc2)cc1,inactive: -5.47%
13,Cc1ccc(CN(C(=O)COc2ccc(C(C)(C)C)cc2)C2CCS(=O)(=O)C2)o1 (stereo unspecified),inactive: -3.32%
14,CCc1ccccc1NC(=O)C(NS(=O)(=O)c1ccc2c(c1)CCC(=O)N2)c1ccccc1 (stereo unspecified),inactive: -1.24%
15,CCCCN(C)C(=O)CN1C(=O)CCn2nc(-c3cn(C)c4ccccc34)cc21,inactive: 11.2%
16,COc1cccc(CCNC(=O)c2c(O)nc3cc(C)ccn3c2=O)c1,inactive: -0.233%
17,COc1ccc(C2=NN(CC(=O)NCc3ccccc3Cl)C(=O)CC2)cc1,inactive: 6.93%
18,CCc1cccc(NC(=O)c2nc(-c3ccncc3)no2)c1,inactive: -2.01%
19,CCOc1ccc(C(=O)Nc2ccc(-c3nc4cc(C(C)C)ccc4o3)cc2)cc1Cl,inactive: -7.55%
20,COc1cccc(CNC(=O)N2CCC(CN3CCC(C)CC3)CC2)c1,inactive: 3.73%
21,Cc1ccc(CCNC(=O)c2c(C)oc3ncnc(N4CCOCC4)c23)cc1,inactive: -1.89%

row,SMILES,"activity change, negative = cytotoxicity"
1,Fc1cccc(NCc2cccn2-c2nnc(N3CCOCC3)s2)c1,inactive: 4.59%
2,COc1cccc(NC(=O)Cn2c(=O)n(CCc3ccccc3)c(=O)c3c4c(sc32)CN(C(C)=O)CC4)c1,inactive: -0.0383%
3,CCOc1ccc(NC(=O)NCc2ccc3c(c2)CCN3C(C)=O)cc1,inactive: 24.8%
4,CCOC(=O)c1cc2c(=O)n3ccccc3nc2n(CC2CCCO2)c1=NC(=O)c1ccc(OC)cc1OC (stereo unspecified),inactive: -17.1%
5,Cc1cc(C)n(-c2nc3ccccc3nc2N2CCN(c3cccc(C)c3C)CC2)n1,inactive: -3.37%
6,CCCNC(=O)C(CC)n1nc(CC)n2c(cc3oc(C)cc32)c1=O (stereo unspecified),inactive: -2.11%
7,CCOC(=O)N1CCc2c(sc3c2C(=O)NC(c2cc(OC)c(O)c(OC)c2)N3)C1 (stereo unspecified),inactive: 2.78%
8,COc1cccc(C(=O)c2cn(CC(=O)NCCc3ccccc3)c3nc(C)ccc3c2=O)c1,inactive: -0.797%
9,CCCN(CCC)CCCNC(=O)Cn1cc2c(n1)-c1c(oc(C(=O)N3CCCC3)c1C)CC2,inactive: 1.26%
10,CCOC(=O)c1c(NC(=O)CSc2cn(CCNC(=O)c3ccccc3OC)c3ccccc23)sc2c1CCC2,inactive: 4.59%
11,CC(C)c1nc2n(n1)C1(CCCCC1)[C@@H]1CCCC[C@@H]1N2,inactive: 2.55%
12,O=C(CSc1nc2c([nH]c3ccccc32)c(=O)n1-c1cccc(Cl)c1)N1CCOCC1,inactive: 3.8%
13,COc1cccc(CNC(=O)C2(c3cccs3)CCOCC2)c1,inactive: 3.33%
14,COc1c(Cl)cc(C(=O)N(Cc2ccc(C)o2)C2CCS(=O)(=O)C2)cc1Cl (stereo unspecified),inactive: -4.32%
15,Cc1cccc(Cn2c(C)c(CNC3CCCCCC3)c(C(=O)O)c2C)c1,inactive: 5.31%
16,O=C(Cn1c(=O)c2ccccc2n(CC(=O)Nc2ccc(F)cc2)c1=O)NCCc1ccccc1,inactive: 19.5%
17,COc1ccc(-c2nc3c4ccccc4n(CC(=O)N4CCN(c5ccc(F)cc5)CC4)c(=O)n3n2)cc1,inactive: 1.17%
18,CC(C)(C)c1ccccc1NC(=O)CSc1nc(-c2cccs2)cc(C(F)(F)F)n1,inactive: -16.6%
19,Cc1nn(CC(=O)Nc2cc(F)ccc2F)c(=O)c2cccn12,inactive: 2.38%
20,CC(C)c1noc(-c2ccccc2OCC(=O)Nc2ccccc2[N+](=O)[O-])n1,inactive: -28.7%
21,CCN(C(=O)c1cc2c(=O)n3cccc(C)c3nc2s1)c1ccc(C)c(C)c1,inactive: -5.84%

row,SMILES,"activity change, negative = cytotoxicity"
1,CCC(NC(=O)Nc1cc(OC)ccc1OC)c1c(-n2cccc2)sc2c1CCN(CC)C2 (stereo unspecified),inactive: 5.37%
2,Cc1c(CNC2CCCCC2)c(C(=O)O)c(C)n1Cc1ccc(F)cc1,inactive: 0.178%
3,CCC(=O)Nc1ccc2nc3c(=O)n(C)c(=O)n(C)c3nc2c1,inactive: 3.51%
4,CCOC(=O)COc1ccc([N+](=O)[O-])cc1-c1ccnc2cc(-c3ccc(C)cc3)nn12,inactive: 10.6%
5,COc1ccc(C(=O)N(c2ccc(OC)cc2)S(=O)(=O)c2ccc3c(c2)n(C)c(=O)n3C)cc1,inactive: -10%
6,CCOC(=O)c1ccc(NC(=O)C2(S(=O)(=O)c3ccc(Cl)cc3)CC2)cc1,inactive: 12.4%
7,C=Cc1ccc(COc2ccc3oc(-c4ccccc4)c(C(=O)OCC)c3c2)cc1,inactive: 7.48%
8,COc1ccc(CNC(=O)c2cc(=O)c3cc(C)ccc3o2)cc1,inactive: -13.2%
9,Cc1cccc(C)c1NS(=O)(=O)c1ccc(NS(=O)(=O)c2ccc3c(c2)OCCO3)cc1,inactive: -4.37%
10,Cc1ccccc1NC(=O)CCC(=O)N1CC(C)Sc2ccccc21 (stereo unspecified),inactive: -6.36%
11,COc1cccc(CNC(=O)CSC2=Nc3ccccc3C3=NC(C(C)C)C(=O)N23)c1 (stereo unspecified),inactive: 3.14%
12,O=C(Nc1cccc(Cl)c1Cl)c1cc(S(=O)(=O)NCCc2ccccc2)ccc1F,inactive: -3.13%
13,O=C(CN1C(=O)C2(SCC(=O)N2c2ccccc2)c2ccccc21)NCc1ccccc1 (stereo unspecified),inactive: 8.75%
14,NC(=O)CSc1ncc2c(n1)-c1ccccc1N(Cc1ccc(Cl)cc1)S2(=O)=O,inactive: 15.6%
15,O=C(c1cc2ccc3cccnc3c2[nH]1)N1CCN(c2ccc(Cl)cc2)CC1,inactive: -4.56%
16,Cc1c(Cl)cccc1NC(=O)Cn1nnc2sc3c(c2c1=O)CCCC3,inactive: 9.45%
17,COc1ccc(-c2nc3ccccc3o2)cc1NC(=O)c1cc([N+](=O)[O-])ccc1N1CCOCC1,inactive: 7.21%
18,Cc1ccc(S(=O)(=O)c2cn(CC(=O)Nc3ccc4c(c3)OCO4)c3ccc(C)cc3c2=O)cc1,inactive: 7.68%
19,COc1ccc(-c2ccc(CCC(=O)O)n2-c2ccccc2C(F)(F)F)cc1,inactive: -24.7%

# Source: PubChem BioAssay AID1508642 (National Center for Advancing Translational Sciences (NCATS), 2021)
